42 sequences from publication PMC7819943, “Rice protein-binding microarrays: a tool to detect cis-acting elements near promoter regions in rice” can be followed below.

The list shows a part of the results.

The target of the assay is T1, OsWOX13 (Oryza sativa, UniProt Q5QMM3 1-267).
T1 sequence: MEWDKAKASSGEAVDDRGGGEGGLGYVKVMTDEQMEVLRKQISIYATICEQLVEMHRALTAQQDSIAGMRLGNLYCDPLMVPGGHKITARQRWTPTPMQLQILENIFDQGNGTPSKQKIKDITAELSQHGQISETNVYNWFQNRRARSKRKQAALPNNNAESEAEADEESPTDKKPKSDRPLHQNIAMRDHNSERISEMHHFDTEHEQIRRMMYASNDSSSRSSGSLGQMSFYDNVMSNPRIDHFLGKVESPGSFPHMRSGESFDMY
Kind of assay: protein-binding microarray (RPBM); PBS, 2% BSA, 51.3 ng/ul salmon testes DNA, 50 uM zinc acetate, 200 nM TF, 25 C, 1 h; high values mean tight binding. The following applies: protein: recombinant; tags: N-terminal polyhistidine and DsRed monomer fusion (pET32a); label: CyDye5-dUTP incorporated in the synthesized complementary strand; 3' TTTTT single-stranded linker to array surface; dsDNA, one strand shown. The method, boiled down: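 Binding signal is defined as the fluorescence intensity of each feature in arbitrary units, read on an Axon 4000B scanner. Transcription factors with N-terminal polyhistidine and DsRed fusions came from E. coli BL21-CodonPlus and were purified on Ni–NTA. They were incubated at 200 nM for 1 h at 25 °C on a custom Agilent array that had been made double-stranded with Cy5-dUTP, with 50 µM zinc acetate present, and the array was washed.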
For “AGTCTTCTTTGTTGCAATCCGGATTGATAGTCTTGAGGAGCGGAGTCACCTAGTGCAG”, the binding signal was 3820 fluorescence intensity (a.u.). The value for “GCGTCCCCAGTCAATTAAGGACCGAGCCATGAAGTTAAGCCGGAGTCACCTAGTGCAG” was 9700 fluorescence intensity (a.u.); that for “TTATCAATCGATAATAATAAAGGCAGGATGAATTGACAGGCGGAGTCACCTAGTGCAG” was 3290 fluorescence intensity (a.u.); that for “TCATTTTCCAATTAAATAATTGTTAAATGATGTTTGTATTCGGAGTCACCTAGTGCAG” was 18100 fluorescence intensity (a.u.). The value for “CATGATTAGCCATAAGCGTTACAGTAACCCACATGTGCTACGGAGTCACCTAGTGCAG” was 31800 fluorescence intensity (a.u.); that for “ATTTGATTGACAGTAGATCGACAAACATAGTTTCAATATGCGGAGTCACCTAGTGCAG” was 49000 fluorescence intensity (a.u.); that for “CTTAATTTTGAATAGTACCTGCTACCTATATGAATTGAAACGGAGTCACCTAGTGCAG” was 14600 fluorescence intensity (a.u.). In the case of “CCTAATGTATGAAAGACACAGAAATGCTTCAACCTGTGCGCGGAGTCACCTAGTGCAG” it was 3780 fluorescence intensity (a.u.). On to “AATGATGGAGGATAATTTATATGCTAAATTATAAACTTGTCGGAGTCACCTAGTGCAG”, for which the binding signal is 57700 fluorescence intensity (a.u.). As to “GGCAGTGATAGGCATTAAATTTACTTTTATTGAATTATTACGGAGTCACCTAGTGCAG”, the binding signal is 9140 fluorescence intensity (a.u.). In the case of “TTAGATTTGGCGACAAATTAAGGGATCTGAAGTGAACTTACGGAGTCACCTAGTGCAG”, the binding signal was 6290 fluorescence intensity (a.u.).

For “TCATGATAAATTTCCTCCTATTATGATTTTCATTTGAATACGGAGTCACCTAGTGCAG”, the binding signal is 7480 fluorescence intensity (a.u.).

Take “ATGCACCAACCAATCAATCGAAACAACAGGTCGAAGAAAACGGAGTCACCTAGTGCAG”: the binding signal was 4870 fluorescence intensity (a.u.). As for “ACTAATTAACTGATCAGTTACCAACCCTGTACTTTTATCACGGAGTCACCTAGTGCAG”, the binding signal was 39800 fluorescence intensity (a.u.).

Take “ATCCAATCAGAAGGCTGTATGTGGTCTTCCGCTTGCATTACGGAGTCACCTAGTGCAG”: the binding signal was 8950 fluorescence intensity (a.u.). The value for “GTAGACTGATCACAATCTTTATTAGAATCGTTTAAGACACCGGAGTCACCTAGTGCAG” was 6090 fluorescence intensity (a.u.). In the case of “AGAGTTAAATTAGCATTAAGAAATACTCCTATGTCTCTTGCGGAGTCACCTAGTGCAG” it was 8630 fluorescence intensity (a.u.).

For the sequence “TACGTCATTCATTAACTGTTTAGGAGTATACTACTCCAGTCGGAGTCACCTAGTGCAG”, the binding signal is 3540 fluorescence intensity (a.u.). Take “TTATAAAATTAATTTGAGAAAATAGTTCAGCCGCTATGATCGGAGTCACCTAGTGCAG”: the binding signal was 20000 fluorescence intensity (a.u.). As for “AAATTGATTAACATATATATGAATGTGAGTAATGCTAGAACGGAGTCACCTAGTGCAG”, the binding signal is 33000 fluorescence intensity (a.u.). The value for “CAAAATTGCAGATAAAATATATTCCCAGTATTTAGTTATTCGGAGTCACCTAGTGCAG” was 4830 fluorescence intensity (a.u.); that for “TGTTCAATTATTATGAAAATAATGTGAGAAAGATGATGTACGGAGTCACCTAGTGCAG” was 10400 fluorescence intensity (a.u.).

As for “ATTGATTTGGAAGGATTTGGATTCGGGATTGAATTCGACGCGGAGTCACCTAGTGCAG”, the binding signal was 32500 fluorescence intensity (a.u.). In the case of “CGGGGTCTCATCATCTAGTTAATTAAATATCAAGGACACGCGGAGTCACCTAGTGCAG” it was 9120 fluorescence intensity (a.u.). The value for “TTGTGAAATCAGCTAATAATCATATTGGAAGTAGGTAAAGCGGAGTCACCTAGTGCAG” was 3430 fluorescence intensity (a.u.). In the case of “GAGGAAGTATAATCATTAGCAGTTAAATATTTCACTCGCACGGAGTCACCTAGTGCAG” it was 5100 fluorescence intensity (a.u.); in that of “GCCTTTTATTAATTAGCATTTCAAAGTTTTCTCAATGATGCGGAGTCACCTAGTGCAG”, 17300 fluorescence intensity (a.u.).

As for “ATTCCTGTTAATTTGGCGCCGTAACTCCAAACAGCATATACGGAGTCACCTAGTGCAG”, the binding signal is 7370 fluorescence intensity (a.u.). The value for “TCTCACTGATGATTTCAATCATACGCTCAACTTAAATATCCGGAGTCACCTAGTGCAG” was 20800 fluorescence intensity (a.u.). As to “TCTCCAAGATTGATTCGTTCCCTCCCAATTCTTCACTTCCCGGAGTCACCTAGTGCAG”, the binding signal was 20800 fluorescence intensity (a.u.). Take “CCTGATAGAAAATATTTATAGTGCCATCTTATTATTTATACGGAGTCACCTAGTGCAG”: the binding signal was 5680 fluorescence intensity (a.u.). In the case of “TTCAATTAATGTGGGATTTTCTAGACCATGAGAGAGAACGCGGAGTCACCTAGTGCAG” it was 10100 fluorescence intensity (a.u.); in that of “TTGACTGATAAAATTACGTAGTGTATTCCTCAATTAAATGCGGAGTCACCTAGTGCAG”, 14500 fluorescence intensity (a.u.); in that of “TAAATCTGACGAAAGATTAATAGGTTAGTCCCATCATTTGCGGAGTCACCTAGTGCAG”, 3360 fluorescence intensity (a.u.). As for “GGCTTAATTGCTCTGTGGTGTACGTTTAACAGGGAAAACTCGGAGTCACCTAGTGCAG”, the binding signal is 28600 fluorescence intensity (a.u.). “AACATAATAAATTAATGAAGTATATTGTTGGAATGTAAAACGGAGTCACCTAGTGCAG”: the binding signal is 4070 fluorescence intensity (a.u.). In the case of “CACCAATCAGTAGAGGACTAGAGGAACTGAACTGAAACCTCGGAGTCACCTAGTGCAG” it was 4860 fluorescence intensity (a.u.). In the case of “TAGCATGATTAATTTTGATAAGGCAAAGTTGTATTTGGATCGGAGTCACCTAGTGCAG” it was 37700 fluorescence intensity (a.u.); in that of “TGAAATGATTGGATAGAAGGCGATTCAAAATGAAACTTTGCGGAGTCACCTAGTGCAG”, 42000 fluorescence intensity (a.u.); in that of “TTAGATGCAATTTAATTTAGTACAACGAATCATGATATGTCGGAGTCACCTAGTGCAG”, 3750 fluorescence intensity (a.u.). Consider “TAAACAATCAAGTCCCTTTCTCCTACTTGCTGAATGTACTCGGAGTCACCTAGTGCAG”, for which the binding signal is 6020 fluorescence intensity (a.u.).

As to “GTAATGTGACGATTAAGAAATCAACATTGATAGCCATTATCGGAGTCACCTAGTGCAG”, the binding signal is 5250 fluorescence intensity (a.u.).
